The structures appear in SMILES notation. About 6,900 (2%) of roughly 340,000 compounds were called active. Rule as the data show it: active = inhibition above about 30%; inactive = below that, where a call was filed. The entries are a selection whose mix differs from that of the whole data set. Where no call is shown, the source filed none.

The text below walks through data of PubChem BioAssay AID485344 (National Center for Advancing Translational Sciences (NCATS), 2010).

The assay addresses D(2) dopamine receptor (Homo sapiens) (UniProt P14416). As to the kind of experiment: HTS Assay for Allosteric Antagonists of the Human D2 Dopamine Receptor: Primary Screen for Antagonists. Also: 0% is about no effect. Particulars: HEK293 TREx D2 cells, calcium flux, dopamine EC80; at 10 µM; stronger effect = higher value. The essentials: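 Dopamine at EC80 is the agonist stimulus; test compounds precede it by 180 s. Calcium flux read kinetically in a force-coupled, inducible HEK293 T-REx D2 cell line.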
Sequence of UniProt P14416 (P14416 whole entry, looked up): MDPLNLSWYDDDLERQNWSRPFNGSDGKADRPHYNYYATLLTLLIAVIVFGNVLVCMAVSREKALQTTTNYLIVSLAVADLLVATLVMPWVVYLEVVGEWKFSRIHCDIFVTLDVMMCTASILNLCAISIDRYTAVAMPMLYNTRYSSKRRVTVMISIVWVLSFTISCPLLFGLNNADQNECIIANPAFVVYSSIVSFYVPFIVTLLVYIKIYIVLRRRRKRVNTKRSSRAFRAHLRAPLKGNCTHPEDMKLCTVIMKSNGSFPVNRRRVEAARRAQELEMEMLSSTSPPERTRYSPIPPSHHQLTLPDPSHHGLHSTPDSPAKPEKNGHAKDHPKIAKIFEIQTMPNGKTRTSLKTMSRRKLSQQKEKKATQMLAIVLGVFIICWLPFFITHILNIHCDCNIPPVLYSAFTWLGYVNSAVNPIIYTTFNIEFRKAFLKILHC
For orientation: Calcium assays in cells follow changes in intracellular calcium, usually with a dye or a luminescent sensor.
In the case of `CCCOc1ccc(C(=O)Nc2cccc(-c3nc4ccccc4[nH]3)c2)cc1`, the inhibition came to 0.0377%. On to `Cc1ccc(-c2nc(C)c(CCNC(=O)C(=O)Nc3ccc4c(c3)OCCO4)s2)cc1`, for which the inhibition came to 5.86%. Take `Cc1ccc(NC(=O)Cn2c(=O)n(Cc3ccccc3)c(=O)c3c(C)c(C)sc32)c(C)c1`: the inhibition is -6.93%.

Consider `COc1cc2c(cc1Cl)/C(=C\CCN(C)C)c1ccccc1S2`, for which the inhibition is active: 36.5%. In the case of `Cc1cccc(C)c1OCC(=O)NCC1(N2CCOCC2)CCCCC1` it was 14.9%; in that of `CCc1ccccc1NC(=O)C1=CC(c2ccc(OC)c(OC)c2)=NS(=O)(=O)N1C`, 23.6%. To `CCOC(=O)c1ccc(-n2c(N)c(C(=O)OC)c3nc4ccccc4nc32)cc1` belongs 12.3%. To `COc1ccc(OC(=O)c2nc(SCc3ccc(C)cc3)ncc2Cl)cc1` belongs -2.67%; to `CC1CCCN(c2csc3ccc(F)cc3c2=O)C1` (stereo unspecified), -17.6%. Turning to `CC1(C)C(=O)N(CC(=O)Nc2ccc(Cl)cc2)c2ccccc21`, the inhibition amounted to 3.98%. To `CN1CCc2c(c3ccccc3n2C)C1` belongs active: 61.4%; to `CCC(C)NC(=O)c1cc2c(Cl)nc3ccc(C)cc3c2s1` (stereo unspecified), -11%; to `CCc1nn2c(=O)cc(COC(=O)c3ccccc3NC(=O)COc3ccccc3C)nc2s1`, 1.12%. To `COc1ccc(-c2nn3c(-c4ccc(OC)cc4)nnc3c3ccccc23)cc1` belongs -0.124%; to `Cc1ccc2c(c1)cc(C(=O)Nc1ccccc1C)n2C`, 7.46%; to `CC(CCc1ccccc1)NC(=O)CN1CCc2ccccc2C1` (stereo unspecified), active: 67.9%. To `COc1cc(C2CC(=O)Nc3c2c(=O)[nH]c2nc4ccccc4n32)ccc1O` (stereo unspecified) belongs 10.7%. In the case of `CCOC(=O)C1CCN(C(c2ccccc2)c2c(O)cc(C)n(Cc3ccco3)c2=O)CC1` (stereo unspecified), the inhibition is -1.38%. To `O=C(Nc1ccc(C(F)(F)F)cc1)C1CCC(CNS(=O)(=O)c2cccc3nsnc23)CC1` (stereo unspecified) belongs -5.79%; to `CCc1c(C)c2ccc3c(c2oc1=O)CN(Cc1ccccc1)CO3`, -10.3%. To `COc1ccc(OCC(=O)Nc2nnc(S(=O)(=O)N3CCCCCC3)s2)cc1` belongs 12.9%; to `Cc1ccc(-n2c(CCC(=O)O)ccc2-c2cccs2)cc1C`, -15.9%; to `O=C(c1ccco1)N(Cc1cccnc1)c1nc2ccc(F)cc2s1`, 0.443%. For `CCc1ccc(S(=O)(=O)c2cn(C)c3cc(N4CCCCC4C)c(F)cc3c2=O)cc1` (stereo unspecified), the inhibition is -2.92%. In the case of `Cc1ccc(S(=O)(=O)NCC(c2ccc(N(C)C)cc2)N2CCCC2)cc1` (stereo unspecified) it was 2.49%; in that of `COc1cc(OC)cc(-c2nc3n(n2)C(c2ccccc2F)C(C(=O)Nc2cccnc2)=C(C)N3)c1` (stereo unspecified), 0.833%; in that of `CCc1ccc(C2C(C(=O)Nc3ccccc3)=C(C)Nc3c(C(=O)Nc4ccc(C)cc4)cnn32)cc1` (stereo unspecified), -9.33%.

With `CCOC(=O)Cn1c(=O)oc2cc(S(=O)(=O)N3CCN(c4ccc(Cl)cc4)CC3)ccc21`, the inhibition came to 12%.

On to `Cc1cc(C)cc(NC(=O)C2CCCN(c3nnc(C)c4c(C)n(-c5ccccc5)nc34)C2)c1` (stereo unspecified), for which the inhibition was -17.6%. To `CCCCN1CCC(COC(=O)c2cc(Cl)c(N)c3c2OCCO3)CC1` belongs active: 64.1%. `COc1ccc2nc3sc(C(=O)Nc4ccccc4F)cc3cc2c1`: the inhibition was 4.19%. To `CCN(CC)S(=O)(=O)c1ccc(NC(=O)[C@H](CSCc2ccccc2)N2Cc3ccccc3C2=O)cc1` belongs -8.9%; to `COC(=O)Cn1c(=O)c2c(nc3n2CCN3c2cccc(C)c2)n(C)c1=O`, -27.1%. To `O=C(O)CCC(=O)NNC(=O)CCC(=O)Nc1ccccc1` belongs active: 39.6%.

Consider `COc1ccc(C(=O)O)cc1Nc1nc2ccc(C)cc2n2cnnc12`, for which the inhibition came to 6.57%. In the case of `Cc1cccc(NC(=O)c2sc3nc4n(c(=O)c3c2C)N=C(c2ccc(F)cc2)CS4)c1C` it was -2.68%.

For the compound `Cc1ccc(N2C(=O)CS(=O)(=O)C23C(=O)N(Cc2cccc(F)c2)c2ccccc23)cc1Cl` (stereo unspecified), the inhibition came out at 13.9%. To `O=C(CSc1nc(-c2ccc(Cl)cc2)nc2c1Cc1ccccc1O2)N1CCCCC1` belongs -3.75%; to `COc1ccc(Cl)cc1NC(=O)c1cc2nc(-c3ccc4c(c3)OCO4)cc(C(F)(F)F)n2n1`, -0.37%; to `COc1cccc(OC(=O)CSc2nnc(-c3ccccc3OC)o2)c1`, 7.01%. To `O=S(=O)(NCCc1ccccc1)c1ccc(N2CCCCS2(=O)=O)cc1` belongs -16.5%; to `COc1ccc(S(=O)(=O)N2CCCCC2)cc1NC(=O)Cc1ccsc1`, active: 30.2%; to `CCN(Cc1nc2ccccc2c(=O)[nH]1)C(=O)c1cccc(S(=O)(=O)N2CCc3ccccc32)c1`, active: 47.4%. In the case of `CCOc1ccc(NS(=O)(=O)c2ccc3[nH]cc(C(=O)NCc4ccco4)c(=O)c3c2)cc1` it was 4.62%.

As for `Cc1ccc(NCc2cccn2-c2nnc(N3CCC(C(=O)NCc4ccc(OC(C)C)cc4)CC3)s2)cc1`, the inhibition came to 7.14%.

Turning to `COc1ccccc1N1CCN(S(=O)(=O)c2c(C)sc3ncn(CC(=O)N(C)c4ccc(C(C)C)cc4)c(=O)c23)CC1`, the inhibition is -0.442%. Regarding `CNS(=O)(=O)c1ccc(OC)c(-c2nnc3c4ccccc4c(C)nn23)c1`, the inhibition turned out to be 14.8%. In the case of `CCOCCOC(=O)c1ccc(NC(=O)/C=C/c2ccc(OC)c(OC)c2)cc1` it was -14.4%; in that of `O=C(CSc1ncc2c(n1)-c1ccccc1N(Cc1ccc(F)cc1)S2(=O)=O)c1ccc(Cl)cc1`, 18.8%; in that of `Cc1ccc(S(=O)(=O)c2cn(C)c3cc(N4CCN(C)CC4)c(F)cc3c2=O)cc1`, 12.5%. In the case of `Cc1cccc(C)c1-n1ncc(C(=O)Nc2ccc3c(c2)OCCO3)c1C1CCN(C(=O)OC(C)(C)C)CC1`, the inhibition was -2.14%.

Turning to `COc1ccccc1C(=O)Nc1cc2c(cc1N1CCCCC1)n(C)c(=O)n2C`, the inhibition stood at 5.05%. To `COc1ccc(Nc2c(-c3cc(Br)ccc3O)nc3ncccn23)cc1OC` belongs 14.5%; to `COc1ccc(N2CCN(c3cc(C)nc4nc(-c5ccc(C)cc5)nn34)CC2)cc1`, 6.54%. In the case of `COc1ccccc1-c1noc(-c2ccc(N3CCN(c4ccccc4)CC3)c([N+](=O)[O-])c2)n1` it was 0.345%; in that of `CC1=C(C#N)C(NC(=O)c2cccc(Cl)c2)(C(F)(F)F)C(=O)N1` (stereo unspecified), -7.55%; in that of `CC(C)(C)n1nc2c(c1NC(=O)Cc1ccc(F)cc1)CSC2`, active: 34.7%. To `Cc1ccc(Cl)cc1NC(=O)N1CCN(C)c2ncccc21` belongs 13.8%; to `COc1cccc(C(=O)NCC2CCCN(C3CCCCC3)C2)c1OC` (stereo unspecified), active: 57.2%; to `CC(C)Oc1ccc(CNC(=O)C2CCN(C(=O)c3sccc3-n3cccc3)CC2)cc1`, -4.82%. `Oc1cccc(CN2CCCCC2)c1`: the inhibition was active: 56.4%.

For `COc1ccccc1CNC(=O)CN1C(=O)CSc2ccc(S(=O)(=O)N3CCCC3)cc21`, the inhibition was -11.6%. To `COC(=O)c1cc2oc3ccccc3c2n1CC(=O)Nc1ccc(OC)c(OC)c1OC` belongs 6.97%; to `Cc1ccc(-c2noc(CNC(=O)c3ccc(C(C)(C)C)cc3)n2)cc1`, -4.11%. To `O=C(C[n+]1ccc2c(c1)nnn2-c1ccccc1)c1ccc(Cl)cc1` belongs active: 35.8%; to `Cc1nn(C(=O)c2cc3sccc3[nH]2)c(C)c1C`, active: 33.6%; to `COc1cccc(NC(=O)Nc2cc(-c3cn4cccnc4n3)ccc2C)c1`, -0.0554%.

With `CCC(Sc1nnc(C)n2c1cc1occc12)C(=O)Nc1ccccc1F` (stereo unspecified), the inhibition came out at 13.3%.

Regarding `O=C(NCCO)C(=O)Nc1c2c(nn1-c1ccc(F)cc1)CSC2`, the inhibition was -2.99%. In the case of `Cn1c(=O)n(C)c2cc(NS(=O)(=O)c3ccccc3)c(NCc3ccccc3)cc21` it was -9.27%; in that of `CN(C)CCN(Cc1ccco1)S(=O)(=O)c1cc2c(cc1Cl)NC(=O)CO2`, -0.485%. In the case of `O=C(CN1C(=O)c2cccnc2Oc2ccc(Cl)cc21)Nc1ccc(F)cc1` it was active: 32.7%; in that of `COc1ccccc1CCNC(=O)CCc1c(C)c2cc3c(C)coc3c(C)c2oc1=O`, -9.93%; in that of `CN(C)c1ccc(NC(=O)c2cccc(N3C(=O)C4C5C=CC(C5)C4C3=O)c2)cc1` (stereo unspecified), active: 36.1%.

For the compound `O=C(Cn1c(=O)n(Cc2ccco2)c(=O)c2oc3ccccc3c21)Nc1ccc(F)cc1F`, the inhibition was found to be 10.5%. In the case of `Cc1cn2c(=O)cc(COc3ccc(NC(=O)c4cccc(F)c4)cc3)nc2s1` it was 15.1%. To `Cc1nn(CCCC(=O)Nc2ccccc2C(F)(F)F)c(=O)c2c1sc1ccccc12` belongs -1.21%; to `COc1ccc(CCNCc2c(C(=O)O)c(C)n(Cc3ccccc3C)c2C)c(OC)c1`, 11.2%; to `O=C(c1ccco1)N1CCN(Cc2cccc(C(F)(F)F)c2)CC1`, active: 77.1%. In the case of `COc1ccc(S(=O)(=O)N(CC(=O)NCc2ccccc2OC)c2ccc(C)cc2)cc1` it was -24.7%; in that of `CCOc1ccccc1N(C)C(=O)Cn1cnc2sc(C)c(S(=O)(=O)N3CCC(C)CC3)c2c1=O`, -6.89%; in that of `Cc1cccc(N2CCN(S(=O)(=O)c3ccc4c(c3)CCCN4C(=O)C3CCC3)CC2)c1C`, -6.57%. Consider `O=C(Nc1cccc(Cl)c1)c1c(NC(=O)C(F)(F)F)sc2c1CCCC2`, for which the inhibition stood at 1.3%. For the compound `CC(=O)Nc1cccc(NC(=O)Cn2cnc3c2c(=O)n(C)c(=O)n3C)c1`, the inhibition is -1.57%. In the case of `Cc1nc(N2CCCC2)c2c(C(=O)Nc3cccc(C)c3C)c(C)oc2n1`, the inhibition stood at 6.34%.

As to `O=C(Nc1ccc(C(=O)OCc2cc(=O)n3nc(C4CC4)sc3n2)cc1)c1ccc(F)cc1`, the inhibition was -0.669%.

Turning to `CCN(CC)c1ccc(NC(=O)C(Cc2ccccc2)NS(=O)(=O)c2ccc(Br)s2)c(C)c1` (stereo unspecified), the inhibition was -8.71%. To `COc1ccc2[nH]cc(C(O)CN3CCN(c4ccccc4F)CC3)c2c1` (stereo unspecified) belongs active: 33.3%; to `Cc1ccc(-n2nc3c(=O)n(CC(=O)Nc4ccccc4F)nc(C)c3c2C)c(C)c1`, 0.53%; to `COC(=O)c1ccc(Cl)cc1NC(=O)N1CC(C)Oc2ccccc21` (stereo unspecified), -13.2%. To `CCOC(=O)c1ccc(NC(=O)c2cc3cc(C)ccc3n2C)cc1` belongs -8.28%; to `Cc1ccc(NC(=O)Nc2nnc(N(C)Cc3ccccc3)s2)cc1`, 11.1%; to `Cc1cc(NS(=O)(=O)c2ccc(NC(=O)COc3ccc(Cl)cc3)cc2)nc(C)n1`, 12.6%. Turning to `Cc1c(Cl)c([N+](=O)[O-])nn1CC(=O)NCc1cccnc1`, the inhibition is active: 39.3%. To `COc1ccc2c(CNCc3ccc(C)o3)c(C(=O)O)n(Cc3ccccc3)c2c1` belongs -17.5%; to `CCOc1cc(-c2nc(-c3ccc(-c4ccc(C)cc4)nc3OC)no2)cc(OCC)c1OCC`, -0.786%.

Broadly, the inhibition is the drop in the measured response relative to a control, in per cent.
